The other results are listed elsewhere or left out.
What was measured:
HSkMC = human skeletal muscle cells; assay: cytotoxicity call (relative viability < 0.9); settings: 10 µM
HepG2 = assay: cytotoxicity call (relative viability < 0.9); settings: 10 µM
S. aureus RN4220 = assay: growth inhibition call (relative growth <= 0.2); settings: 50 µM

SMILES | cytotoxicity call (HSkMC) | cytotoxicity call (HepG2) | growth inhibition call (S. aureus RN4220)
CC1CC2C(C(O)CC3(C)C2CCC3(O)C(=O)CO)C2(C)C=CC(=O)C=C12 (stereo not drawn) | inactive | inactive | inactive
C[C@@H]1CN([C@H](C)CO)C(=O)c2cc(-c3cccc(C#N)c3)cnc2O[C@H]1CN(C)C(=O)C1CCOCC1 | inactive | inactive | inactive
Clc1ccc2c(c1)CCc1cccnc1C2=C1CCNCC1 | inactive | active | inactive
Cc1ccc(S(=O)(=O)N(C)C[C@H]2Oc3c(NC(=O)c4cc(C)nn4C)cccc3C(=O)N([C@H](C)CO)C[C@@H]2C)cc1 | inactive | inactive | inactive
C[C@H](CO)N1C[C@H](C)[C@H](CN(C)C(=O)Nc2ccc(C(F)(F)F)cc2)Oc2ccc(NC(=O)CCC(F)(F)F)cc2C1=O | inactive | inactive | inactive
CC(C)NC(=O)N(C)C[C@H]1Oc2ccc(NC(=O)Nc3ccc4c(c3)OCO4)cc2C(=O)N([C@H](C)CO)C[C@H]1C | inactive | inactive | inactive
C[C@@H]1CCCCO[C@@H](CN(C)S(=O)(=O)c2cccs2)[C@H](C)CN([C@@H](C)CO)C(=O)c2cc(NC(=O)C3CCCCC3)ccc2O1 | inactive | inactive | inactive
CC(C)NC(=O)N(C)C[C@H]1OCCCC[C@@H](C)Oc2ccc(NS(C)(=O)=O)cc2C(=O)N([C@@H](C)CO)C[C@@H]1C | inactive | inactive | inactive
C[C@@H]1CCCCO[C@H](CN(C)C(=O)C2CCCCC2)[C@H](C)CN([C@@H](C)CO)C(=O)c2cc(NC(=O)C3CCCCC3)ccc2O1 | inactive | inactive | inactive
CC(=O)OCC1=C[C@@H]2OC(=O)C3=CO[C@@H](O[C@H]4O[C@H](CO)[C@@H](O)[C@H](O)[C@H]4O)[C@H]1[C@@H]32 | inactive | inactive | inactive
Cc1noc(C)c1NC(=O)N(C)C[C@@H]1Oc2ccc(NC(=O)CCN3CCOCC3)cc2CC(=O)N([C@H](C)CO)C[C@H]1C | inactive | inactive | inactive
Cl.Nc1ccc(N=Nc2ccccc2)c(N)n1 | inactive | inactive | inactive
COc1ccc(NC(=O)N(C)C[C@@H]2OCCCC[C@@H](C)Oc3ccc(NC(=O)CCC(F)(F)F)cc3C(=O)N([C@H](C)CO)C[C@@H]2C)cc1 | inactive | inactive | inactive
C[C@@H]1CCCCO[C@@H](CN(C)C(=O)Cc2ccccc2)[C@H](C)CN([C@@H](C)CO)C(=O)c2cc(NS(=O)(=O)c3ccc(Cl)cc3)ccc2O1 | inactive | inactive | inactive
Cc1noc(C)c1NC(=O)N[C@@H]1C=C[C@@H](CC(=O)N2CCN(C)CC2)O[C@H]1CO | inactive | inactive | inactive
Cc1noc(C)c1NC(=O)Nc1ccc2c(c1)C(=O)N([C@@H](C)CO)C[C@H](C)[C@@H](CN(C)CC1CCCCC1)OCCCC[C@H](C)O2 | inactive | inactive | inactive
Cc1ccccc1S(=O)(=O)N1C[C@H](O)COC[C@H]2O[C@@H](CC(=O)NCCc3ccncc3)CC[C@@H]21 | inactive | inactive | inactive
Cc1ccc(S(=O)(=O)O)cc1.NC1CCN(c2nc3c(cc2F)c(=O)c(C(=O)O)cn3-c2ccc(F)cc2F)C1.O (stereo not drawn) | inactive | inactive | inactive
C[C@H](CO)N1C[C@H](C)[C@@H](CN(C)S(=O)(=O)c2cccs2)OCCCC[C@H](C)Oc2ccc(NC(=O)C3CCCCC3)cc2C1=O | inactive | inactive | inactive

SMILES | cytotoxicity call (HSkMC) | cytotoxicity call (HepG2) | growth inhibition call (S. aureus RN4220)
CNC[C@H]1Oc2ccc(NS(=O)(=O)c3cn(C)cn3)cc2CC(=O)N([C@H](C)CO)C[C@H]1C | inactive | inactive | inactive
C[C@H](CO)N1C[C@H](C)[C@@H](CN(C)Cc2ccncc2)Oc2c(NC(=O)Cn3cnnn3)cccc2C1=O | inactive | inactive | inactive
C[C@H]1CN([C@@H](C)CO)C(=O)c2cccc(NS(=O)(=O)c3ccc(F)cc3)c2O[C@H]1CN(C)C(=O)Nc1ccc(C(F)(F)F)cc1 | inactive | inactive | inactive
C=C/C=C/[C@H]1C(=C)CN([C@H](Cc2ccc(-n3cc(COc4ccccc4/C=C(C)/C=C/C(=O)NO)nn3)cc2)C(=O)OC)[C@@H]1[C@H](O)Cc1ccccc1 | inactive | inactive | inactive
C[C@@H]1CCCCO[C@@H](CN(C)S(=O)(=O)c2ccccc2)[C@@H](C)CN([C@H](C)CO)C(=O)c2cc(NS(=O)(=O)c3cn(C)cn3)ccc2O1 | inactive | inactive | inactive
NC[C@H]1O[C@H](O[C@H]2[C@H](O)[C@@H](O[C@H]3O[C@H](CO)[C@@H](O)[C@H](N)[C@H]3O)[C@H](N)C[C@@H]2N)[C@H](N)[C@@H](O)[C@@H]1O | inactive | inactive | inactive
O=C(CN1CCOCC1)N[C@H]1CC[C@H](CCn2cc(C3CC3)nn2)O[C@@H]1CO | inactive | inactive | inactive
C[C@@H]1CN([C@H](C)CO)S(=O)(=O)c2ccc(C#CCN(C)C)cc2O[C@H]1CN(C)C | inactive | inactive | inactive
Nc1nc2c(s1)CNCC2 | inactive | inactive | inactive
CS(=O)(=O)N1Cc2cncn2C[C@H](COCC(=O)N2CCCC2)C1 | inactive | inactive | inactive
COc1cccc(-c2ccc3c(c2)O[C@@H](CN(C)C(=O)C2CC2)[C@H](C)CN([C@H](C)CO)S3(=O)=O)c1 | inactive | inactive | inactive
C[N+](C)(C)CCCC[C@@H]1NC(=O)[C@@H]2C[C@H](C(=O)NCCCCCCNC(=O)CS)[C@H](c3cccc(OCCO)c3)N2C1=O | inactive | inactive | inactive
Cc1ccc(S(=O)(=O)N(C)C[C@H]2OCCCC[C@@H](C)Oc3ccc(NC(=O)C4CCCCC4)cc3C(=O)N([C@@H](C)CO)C[C@@H]2C)cc1 | inactive | inactive | inactive
Cc1cc(C(=O)Nc2ccc(S(=O)(=O)O)c3cc(S(=O)(=O)O)cc(S(=O)(=O)O)c23)ccc1NC(=O)c1cccc(NC(=O)Nc2cccc(C(=O)Nc3cc(C(=O)Nc4ccc(S(=O)(=O)O)c5cc(S(=O)(=O)O)cc(S(=O)(=O)O)c45)ccc3C)c2)c1 | inactive | inactive | inactive
Cn1cnc(S(=O)(=O)N[C@@H]2C=C[C@@H](CC(=O)NCC3CC3)O[C@@H]2CO)c1 | inactive | inactive | inactive
CO[C@H]1CN(C)C(=O)c2cc(NS(=O)(=O)c3ccccc3C)ccc2OC[C@@H](C)N(S(C)(=O)=O)C[C@@H]1C | inactive | inactive | inactive
COCC#Cc1ccc([C@@H]2[C@H]3CN(C(=O)c4cccnc4)CC(=O)N3[C@H]2CO)cc1 | inactive | inactive | inactive
Clc1cccn2nnnc12 | inactive | inactive | inactive
Cn1cnc(CCNC(=O)C[C@@H]2CC[C@H]3[C@@H](COC[C@@H](O)CN3C(=O)Nc3ccc(C(F)(F)F)cc3)O2)c1 | inactive | inactive | active

SMILES | cytotoxicity call (HSkMC) | cytotoxicity call (HepG2) | growth inhibition call (S. aureus RN4220)
C=C[C@@H](COC(=O)OC(C)(C)C)N(Cc1ccc(OC)cc1)S(=O)(=O)c1ccc(Br)cc1 | inactive | inactive | inactive
C[C@@H]1CN([C@@H](C)CO)C(=O)c2cc(NS(=O)(=O)c3ccccc3)ccc2O[C@@H](C)CCCCO[C@H]1CN(C)Cc1ccccc1 | inactive | inactive | inactive
C[C@H](CO)N1C[C@H](C)[C@H](CN(C)C(=O)CN2CCOCC2)Oc2ncc(-c3cncnc3)cc2C1=O | inactive | inactive | inactive
NNC(=O)CCCCCCC(=O)O | inactive | inactive | inactive
COCC(=O)N1[C@H](C(=O)NCc2ccccc2)[C@@H](CO)[C@@H]2Cn3c(cccc3=O)[C@@H]21 | inactive | inactive | inactive
COCC#Cc1ccc2c(c1)O[C@@H](CN(C)C(=O)c1ccccc1)[C@@H](C)CN([C@@H](C)CO)S2(=O)=O | inactive | inactive | inactive
C[C@@H]1CCCCO[C@@H](CN(C)C(=O)Nc2ccc(C(F)(F)F)cc2)[C@H](C)CN([C@H](C)CO)C(=O)c2cc(NS(=O)(=O)c3cccs3)ccc2O1 | inactive | active | inactive
COc1ccc(C[C@@H]2c3cc(OC)c(OC)cc3CC[N@+]2(C)CCC(=O)OCCCCCOC(=O)CC[N@@+]2(C)CCc3cc(OC)c(OC)cc3[C@H]2Cc2ccc(OC)c(OC)c2)cc1OC | active | active | inactive
NCc1ccc2occc2c1 | inactive | inactive | inactive
CN1C(=O)c2cc(NC(=O)Cc3cccs3)ccc2OC[C@@H]2O[C@H](CC(=O)NCCc3ccncc3)CC[C@@H]21 | inactive | inactive | inactive
CN([C@@H](c1ccccc1)c1ccccn1)S(=O)(=O)c1cn(C)c(=O)n(C)c1=O | inactive | inactive | inactive
CCNC(=O)C[C@@H]1CC[C@@H](NC(=O)C2CC2)[C@@H](CO)O1 | inactive | inactive | inactive
C[C@H]1CN([C@@H](C)CO)C(=O)Cc2cc(NS(=O)(=O)c3ccccc3)ccc2O[C@@H]1CN(C)CC1CC1 | inactive | inactive | inactive
COc1ccc(CN(C)C[C@H]2OCCCC[C@@H](C)Oc3ccc(NC(=O)CCCCCC(=O)Nc4ccccc4N)cc3C(=O)N([C@H](C)CO)C[C@@H]2C)cc1 | inactive | inactive | inactive
C[C@H](CO)N1C[C@H](C)[C@H](CN(C)Cc2ccccc2)Oc2c(NS(=O)(=O)c3cn(C)cn3)cccc2C1=O | inactive | inactive | inactive
COc1ccc(S(=O)(=O)N(C)C[C@H]2OCc3cnnn3CCCC(=O)N([C@H](C)CO)C[C@H]2C)cc1 | inactive | inactive | inactive
O=S(=O)(Nn1cnnc1)c1ccccc1 | inactive | inactive | inactive
CC(C)NC(=O)N(C)C[C@H]1Oc2ccc(NC(=O)c3ccncc3)cc2CC(=O)N([C@H](C)CO)C[C@H]1C | inactive | inactive | inactive
